Reference: PubChem BioAssay AID504832 (National Center for Advancing Translational Sciences (NCATS), 2011)
Hit rate of the full screen: of about 310,000 compounds, about 18,000 (5.8%) were called active. This list was built around the results that the source calls inconclusive (neither active nor inactive); the mix of calls is not that of the screen. Calls follow the shape of the dose curve; as a rule, active = well fitted inhibition curve with a large enough effect; inconclusive = small, poorly fitted or top-dose-only effect, or another doubt; inactive = no such curve, though single readings can be large or run the other way. Potencies of inconclusive entries are left out as doubtful fits.

Assay: Primary qHTS for delayed death inhibitors of the malarial parasite plastid, 48 hour incubation
Conditions: P. falciparum luciferase growth in erythrocytes; series mostly up to 28.7 µM; activity change, negative = inhibition: at the top concentration
Procedure, shortened: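 Read-out is firefly luciferase luminescence from an integrated reporter in P. falciparum, so falling signal marks reduced parasite growth. Infected erythrocytes were at 2% hematocrit and 0.1% parasitemia (final) in Albumax-supplemented RPMI 1640.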
% is scaled to controls: 0 for no effect and ±100 for the full control effect; potency is read from the fitted curve at half-maximal effect; tags tell the direction and shape of the fitted curve.

Row | Structure (SMILES) | Potency | activity change, negative = inhibition
1 | COc1ccc2nc(N=Nc3ccc(O)c4ccccc34)sc2c1 | inconclusive [inhibitor, single point] | –
2 | Cc1c(NS(=O)(=O)c2cccs2)cccc1-c1nc2cccnc2s1 | – | inactive: 6.22%
3 | Cc1cccc([C@@H]2[C@@H]3C(=O)N(Cc4ccccc4)C(=O)[C@@H]3[C@]3(Cc4ccc(Cl)cc4)C(=O)N(c4ccccc4)C(=O)N23)c1 | inconclusive [inhibitor, full curve] | –
4 | NNC(=S)Nc1ccc(S(=O)(=O)N2CCCCC2)cc1 | inconclusive [inhibitor, partial curve, poor fit] | –
5 | COc1cccc2cc(C(=O)Nc3ccccc3C)/c(=N/O)oc12 | – | inactive: 6.45%
6 | CC(C)C[C@H](NC(=O)c1nc[nH]c1C(=O)NCc1ccccc1)C(=O)OC(C)(C)C | inconclusive [inhibitor, single point] | –
7 | Cc1ccccc1COCCN1CCN(S(=O)(=O)c2ccccc2)CCC1=O | inconclusive [inhibitor, single point] | –
8 | N#CCSc1nn(-c2ccc(F)cc2)c(=S)s1 | active: 5.86 µM | –
9 | N#Cc1nc(NCC(F)F)nc(Nc2cc(F)cc(F)c2)n1 | active: 10.4 µM | –
10 | COc1ccc(N(CC(=O)Nc2ccccc2C(N)=O)S(=O)(=O)c2ccc(C)c([N+](=O)[O-])c2)cc1 | inconclusive [inhibitor, single point] | –
11 | COc1ccc(Cl)cc1NS(=O)(=O)c1cccc(C(=O)NCC2(N(C)C)CCCCC2)c1 | inconclusive [inhibitor, partial curve] | –
12 | CCOC(=O)COc1ccccc1/C=C\[N+](=O)[O-] | active: 14.7 µM | –
13 | COc1ccc(CCNC(=O)c2cc(-c3ccccc3O)n[nH]2)cc1OC | active: 13.1 µM | –
14 | CCC(C)NC(=O)c1cnn2c1NC(c1cccs1)CC2C(F)(F)F (stereo not given) | – | inactive: -6.17%
15 | Cc1ccccc1-n1c(-c2ccc(=O)[nH]n2)n[nH]c1=S | – | inactive: -7.72%
16 | CCOc1ccc(NC(=O)CN(c2ccc(OC)cc2)S(=O)(=O)c2cccs2)cc1 | – | inactive: -5.56%
17 | CC(C)C(c1nnnn1C1CCCC1)N1CCc2ccccc21 (stereo not given) | inconclusive [inhibitor, partial curve] | –
18 | COc1cc(/C=C2/SC(=S)N(Cc3ccccc3)C2=O)ccc1O | inconclusive [inhibitor, partial curve, poor fit] | –
19 | CCc1cc(-c2nc(N)ncc2-c2csc(C)n2)c(O)cc1OC | inconclusive [inhibitor, partial curve, poor fit] | –
20 | O=[N+]([O-])c1cccc(-c2nc(NCc3ccccc3)c3ccccc3n2)c1 | inconclusive [inhibitor, single point] | –
21 | C/C=C(/C)C(=O)O[C@@H]1c2cc(OC)c(OC)c(OC)c2-c2c(cc3c(c2OC)OCO3)C[C@H](C)[C@]1(C)O | inconclusive [inhibitor, single point] | –
22 | Cc1ccc(C)c(S(=O)(=O)N2CCCOC2CNC(=O)C(=O)NCc2ccccc2)c1 (stereo not given) | inconclusive [inhibitor, partial curve, poor fit] | –

Row | Structure (SMILES) | Potency | activity change, negative = inhibition
23 | CC1=C(C(=O)Nc2ccccc2F)C(c2ccsc2)C2=C(CC(c3ccccc3)CC2=O)N1 (stereo not given) | inconclusive [inhibitor, single point] | –
24 | c1csc(CNc2ncnc3ccc(-c4ccoc4)cc23)c1 | inconclusive [inhibitor, single point] | –
25 | C=CCC1(CC=C)CCCN1C(=O)c1cc(COc2cncc(Cl)c2)on1 | inconclusive [inhibitor, single point] | –
26 | CN1CCN(CC(=O)Nc2cc(S(=O)(=O)N3CCOCC3)ccc2Cl)CC1 | – | inactive: 9.43%
27 | C(=N\N(Cc1ccccc1)c1ccccc1)/c1ccco1 | – | inactive: -1.14%
28 | Cc1cc(NC(=O)c2cccc(S(=O)(=O)N3CCOCC3)c2)c2ccccc2n1 | inconclusive [inhibitor, single point] | –
29 | CCC(C)n1c(SCC(=O)Nc2ccc3[nH]c(=O)[nH]c3c2)nc2ccccc2c1=O (stereo not given) | inconclusive [inhibitor, single point] | –
30 | CCOC(=O)C1=C(C)N=C2c3ccccc3C(=O)C2C1c1ccc(C)cc1 (stereo not given) | inconclusive [inhibitor, partial curve, poor fit] | –
31 | Cc1ccc(N2CC(NS(=O)(=O)c3cccs3)CC2=O)cc1C (stereo not given) | inconclusive [inhibitor, partial curve, poor fit] | –
32 | CC(C)Cn1c(N)c(C(=O)COC(=O)Cc2cccc(C(F)(F)F)c2)c(=O)n(C)c1=O | active: 9.28 µM | –
33 | CCOP(=O)(c1ccc(N(C)C)cc1)C(O)c1ccccc1 (stereo not given) | active: 11.7 µM | –
34 | O=C(NCCc1ccccc1)C(=O)NCC(c1ccco1)N1CCOCC1 (stereo not given) | inconclusive [inhibitor, full curve, poor fit] | –
35 | CN(C(=O)COc1ccccc1)c1nnc(C23CC4CC(CC(C4)C2)C3)s1 | inconclusive [inhibitor, partial curve, poor fit] | –
36 | CCS(=O)(=O)c1nc(S(=O)(=O)c2ccc(C)cc2)c(N2CCCC2)s1 | inconclusive [inhibitor, partial curve] | –
37 | CCNC(=O)NCc1c(C)c(C)n(Cc2ccccc2)c1-n1cccc1 | inconclusive [inhibitor, single point] | –
38 | CCCCCOc1ccc(C(O)C(CN2CCOCC2)c2ccccc2)cc1 (stereo not given) | active: 2.62 µM | –
39 | CC1(C)CC(=O)c2cnc(NCC3CCCO3)nc2C1 (stereo not given) | – | inactive: 25.5%
40 | COc1ccc(C2C(C(=O)Nc3ccc(OC)c(OC)c3)c3ccccc3C(=O)N2C)cc1 (stereo not given) | inconclusive [inhibitor, partial curve] | –
41 | COC(=O)[C@H](Cc1ccccc1)NC(=O)[C@@]1(C)C[C@@H]1[C@@H](NC(=O)OCc1ccccc1)c1ccccc1 | inconclusive [inhibitor, single point] | –
42 | O=S(=O)(Nc1cc(S(=O)(=O)N2CCOCC2)ccc1N1CCOCC1)c1ccc2c(c1)OCCO2 | inconclusive [inhibitor, partial curve] | –
43 | O=C(CN1CCN(c2nc(-c3ccc(F)cc3)cs2)CC1)NCc1ccc2c(c1)OCO2 | inconclusive [inhibitor, single point] | –
44 | CCOC(=O)c1ccc(NC2c3ccccc3C(=O)N2c2cccnc2)cc1 (stereo not given) | – | inactive: 2.7%

Row | Structure (SMILES) | Potency | activity change, negative = inhibition
45 | COCCOC(=O)c1[nH]c2c(c1C)C(=O)CC(c1ccc(N(C)C)cc1)C2 (stereo not given) | active: 11.7 µM | –
46 | Cc1cccc(Cc2nnc(CCC(=O)NCc3cnc4ccccn34)o2)c1 | inconclusive [inhibitor, full curve, poor fit] | –
47 | Cc1ccnc(OC(C(=O)O)C(OCCc2ccccc2)(c2ccccc2)c2ccccc2)n1 (stereo not given) | inconclusive [inhibitor, full curve, poor fit] | –
48 | O=C(OCCN1CCN(C2=NS(=O)(=O)c3ccccc32)CC1)c1ccccc1F | – | inactive: -13.1%
49 | Cc1cccc(OCCNC(=S)NC(=O)c2cncc(Br)c2)c1 | – | inactive: 10.4%
50 | CC(C)(C)NC(=O)C(c1ccc(O)cc1)N(C(=O)CCC(=O)Nc1nccs1)c1ccccc1F (stereo not given) | inconclusive [inhibitor, partial curve, poor fit] | –
51 | Cc1ccccc1NC(=O)CSc1nc(=O)n(CCN2CCOCC2)c2c1CCCC2 | inconclusive [inhibitor, partial curve, poor fit] | –
52 | CN1CCN(S(=O)(=O)c2ccc(NC(=S)NC(=O)c3ccc(Cl)cc3)cc2)CC1 | active: 4.65 µM | –
53 | Cc1ccc(C(=O)N2CC(C)OC(C)C2)cc1S(=O)(=O)N1CCCCC1 (stereo not given) | inconclusive [inhibitor, single point] | –
54 | COc1ccc(OCC(=O)N2CCN(Cc3ccc4c(c3)OCO4)CC2)cc1 | – | inactive: -11.8%
55 | CCS(=O)(=O)N1Cc2ccccc2CC1C(=O)N1CCN(c2ccccc2)CC1 (stereo not given) | inconclusive [inhibitor, partial curve] | –
56 | CCOC(=O)c1cnc2ccc(OC)cc2c1NCCN1CCOCC1 | inconclusive [inhibitor, partial curve, poor fit] | –
57 | COc1ccc(CCNc2ccc(S(=O)(=O)N3CCN(C)CC3)cc2[N+](=O)[O-])cc1 | inconclusive [inhibitor, partial curve] | –
58 | C=CCN1C(=O)/C(=C2/Sc3ccccc3N2C)SC1=Nc1c(C)n[nH]c1C | inconclusive [inhibitor, partial curve, poor fit] | –
59 | CC(C)c1cc(Br)c(NC(=O)Nc2cccnc2)c(Br)c1 | inconclusive [inhibitor, partial curve, poor fit] | –
60 | O=Nc1c(O)n(Cc2ccc(Cl)cc2Cl)c2ccccc12 | inconclusive [inhibitor, partial curve, poor fit] | –
61 | O=C(CSCc1ccccc1)N1CCN(S(=O)(=O)c2cccc(F)c2)CC1 | – | inactive: 8.94%
62 | C=CCn1c(N)c(C(=O)NCC2CCCO2)c2nc3ccccc3nc21 (stereo not given) | inconclusive [inhibitor, single point] | –
63 | CC1CCN(c2c(NCC3CCC(C(=O)NCCC4=CCCCC4)CC3)c(=O)c2=O)CC1 (stereo not given) | active: 7.38 µM | –
64 | CSc1ccccc1NC(=O)c1ccccc1 | inconclusive [inhibitor, single point] | –
65 | Cn1cc(NC(=O)OCc2ccc(Cl)cc2)c(C(F)(F)F)n1 | inconclusive [inhibitor, partial curve, poor fit] | –
